{"source": "paper PMC6919601", "about": "“Identification of Plasmodium dipeptidyl aminopeptidase allosteric inhibitors by high throughput screening” (PLoS ONE, 2019)", "note": "In all, about 110,000 compounds went through this assay and about 230 (0.21%) showed an effect of 50% or more. The list shows a part of the results.", "data": [{"biological_target": "DPAP1 (Plasmodium falciparum, UniProt Q8IIJ9)", "sequence (Q8IIJ9 whole entry, looked up)": "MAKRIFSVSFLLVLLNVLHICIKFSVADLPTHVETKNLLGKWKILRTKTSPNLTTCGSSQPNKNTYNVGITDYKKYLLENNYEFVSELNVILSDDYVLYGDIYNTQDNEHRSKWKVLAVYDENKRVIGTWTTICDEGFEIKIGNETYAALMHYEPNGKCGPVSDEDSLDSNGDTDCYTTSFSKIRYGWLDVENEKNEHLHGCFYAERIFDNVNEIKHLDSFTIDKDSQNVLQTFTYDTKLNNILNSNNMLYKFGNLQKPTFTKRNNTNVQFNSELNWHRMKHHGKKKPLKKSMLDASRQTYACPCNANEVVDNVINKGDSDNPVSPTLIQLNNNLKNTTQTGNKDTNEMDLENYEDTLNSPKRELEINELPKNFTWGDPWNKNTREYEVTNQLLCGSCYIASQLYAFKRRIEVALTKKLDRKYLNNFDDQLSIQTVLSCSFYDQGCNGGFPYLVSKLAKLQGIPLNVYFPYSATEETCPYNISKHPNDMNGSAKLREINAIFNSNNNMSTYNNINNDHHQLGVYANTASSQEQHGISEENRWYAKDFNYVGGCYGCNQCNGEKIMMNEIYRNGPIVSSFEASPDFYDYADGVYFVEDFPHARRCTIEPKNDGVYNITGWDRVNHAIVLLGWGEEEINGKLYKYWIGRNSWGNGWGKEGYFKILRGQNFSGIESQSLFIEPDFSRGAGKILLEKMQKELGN", "experiment": "primary screen, percent inhibition; read by cleavage of a fluorogenic dipeptide substrate; higher = more effect of the substance", "set-up": "species or system P. falciparum D10 trophozoite lysates; single well", "units": {"% Inhibition @ 10 uM": "%"}, "values": [{"compound": "CCC(C)n1c(=O)c2sccc2n2c(CCCC(=O)NCc3ccc(F)cc3)nnc12", "note": "(stereo not shown);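 further: 30 min substrate incubation versus DMSO and 10 µM JCP410 controls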", "% Inhibition @ 10 uM": -1.59}, {"compound": "COc1ccc(C2CC(c3ccc(-c4ccccc4)cc3)Nc3nnnn32)cc1", "note": "(stereo not shown)", "% Inhibition @ 10 uM": -7.08}, {"compound": "CCN(CC)CCNC(=O)c1ccc(N2CCN(C)CC2)nc1", "% Inhibition @ 10 uM": -0.116}, {"compound": "CCOC(=O)c1[nH]c2ccccc2c1NC(=O)C(c1ccccc1)c1ccccc1", "% Inhibition @ 10 uM": 4.14}, {"compound": "Cc1cc(C)nc(SCC(=O)c2ccc(O)c(O)c2)n1", "% Inhibition @ 10 uM": 9.13}, {"compound": "COc1ccc(OC)c(NC(=O)c2sc3nc(-c4cccs4)ccc3c2N)c1", "% Inhibition @ 10 uM": 5.66}, {"compound": "O=C(NC1CCCCCC1)c1cccnc1S", "% Inhibition @ 10 uM": 3.04}, {"compound": "CN1CCN(C(=O)CNC(=O)C2CCCCC2)CC1", "% Inhibition @ 10 uM": -1.44}, {"compound": "C=CCN1C(=O)N/C(=C/c2cc(C)n(-c3ccccc3Cl)c2C)C1=O", "% Inhibition @ 10 uM": 3.75}, {"compound": "O=C(O)c1cc(Cl)c2c(c1)[C@@H]1C=CC[C@@H]1[C@H](c1ccccc1F)N2", "% Inhibition @ 10 uM": 12.7}, {"compound": "CN(C)c1ccc(NC(=O)c2ccc(Cn3cc(Cl)cn3)o2)cc1", "% Inhibition @ 10 uM": 2.49}, {"compound": "Cc1ccc2oc(Nc3ncc(C(=O)Nc4ccccc4C)c(C)n3)nc2c1", "% Inhibition @ 10 uM": -0.318}, {"compound": "Cc1cc(C(=O)NCc2ccc(Cl)cc2)n(-c2ccccc2)n1", "% Inhibition @ 10 uM": -2.14}, {"compound": "O=Cc1cn(Cc2c(F)cccc2Cl)c2ccccc12", "% Inhibition @ 10 uM": -4.53}, {"compound": "Cc1cccc(/N=C/C2=C(O)CCCC2)c1Cl", "% Inhibition @ 10 uM": -4.12}, {"compound": "CC[C@H](NC(=O)[C@H](Cc1c(F)cccc1F)NC(=O)c1ccc(-c2ccccc2Cl)cc1)C(=O)c1nc2ncccc2o1", "% Inhibition @ 10 uM": 2.87}, {"compound": "CCOC(=O)c1c(N)sc(C(=O)N(C)C)c1C", "% Inhibition @ 10 uM": 7.31}, {"compound": "N#C/C(=C/c1cccc(Cl)c1)c1nc(-c2ccc(Br)cc2)cs1", "% Inhibition @ 10 uM": -1.25}, {"compound": "c1ccc2c(Cn3nnc4c(N5CCOCC5)ncnc43)cccc2c1", "% Inhibition @ 10 uM": -0.0108}, {"compound": "NS(=O)(=O)c1ccc2cc(O)ccc2c1", "% Inhibition @ 10 uM": -0.216}, {"compound": "CCC1CCC(N2CCCC(CO)C2)CC1", "note": "(stereo not shown)", "% Inhibition @ 10 uM": 4.65}, {"compound": "O=C1c2ccccc2C(=O)N1OCc1ccccc1", "% Inhibition @ 10 uM": -4.11}, {"compound": "C=CCOc1ccc(/C=C2\\C(=O)N(CCCOC)C(C)=C2C(=O)OC)cc1", "% Inhibition @ 10 uM": -3.06}, {"compound": "Cc1ccccc1-c1nc(CS(=O)(=O)CC(=O)NC2CCCCC2C)c(C)o1", "note": "(stereo not shown)", "% Inhibition @ 10 uM": -1.89}, {"compound": "CCOc1ccc(C(=O)OC2CC3CCC(C2)N3C)cc1", "note": "(stereo not shown)", "% Inhibition @ 10 uM": 12.8}, {"compound": "CCc1cc(C(=O)Nc2ccc(C)cc2Br)cs1", "% Inhibition @ 10 uM": 3.04}, {"compound": "Cc1ccnc(NS(=O)(=O)c2ccc(NC(=O)C(C)C)cc2)n1", "% Inhibition @ 10 uM": -1.44}, {"compound": "CCOc1cc(C2c3c(-c4ccccc4O)n[nH]c3C(=O)N2CCO)ccc1O", "note": "(stereo not shown)", "% Inhibition @ 10 uM": -3.12}]}]}
